Assay results reported in PubChem BioAssay AID1347076 (National Center for Advancing Translational Sciences (NCATS), 2019).
Out of some 400,000 compounds screened, about 13,000 (3.2%) were called active. Another 18% or so got no clear call; they are omitted. Calls come from the whole dose curve; as a rule, active = well fitted cell-killing curve with a large enough effect; inconclusive = small, poorly fitted or top-dose-only effect, or effect the other way; inactive = flat fitted curve, though single readings scatter. Some structures have more than one record in an assay (separate samples or runs), and their calls can disagree. For part of its entries the source gives two or more results. The other results are left out here. The source may hold further records. Values given together repeat one measurement (runs, samples, wells, individuals or studies). Marks in square brackets tell the records apart. The letters are not those of the source and start again with each entry.

assay: qHTS assay for MDR1-selective chemotherapeutics: Primary screen using the drug-selected MDR subline cells KB-V1; conditions: KB-V1 MDR cells viability, CellTiter-Glo, 72 h; series mostly up to 46.1 µM; note: nearly all actives have a fitted effect of over 60% in size
From the text: A prime difficulty in effectively treating cancer is the development of cellular resistance to multiple structurally unrelated anticancer drugs, a phenomenon known as multidrug resistance (MDR). […] Numerous strategies to overcome P-gp-mediated MDR have been explored, including the design of drugs that evade recognition and efflux, and development of inhibitors to block efflux and restore drug accumulation. […] An alternative approach is to exploit resistance by identifying drugs that target MDR cells over the non-resistant parental cells from which they were selected. […] The development of MDR1-selective agents represents a new strategy for resolving multidrug resistance, as it remains a long-standing clinical challenge for cancer chemotherapy.
Our goal is to identify compounds that selectively kill P-gp-expressing MDR cells. We will identify MDR1-selective compounds by comparing toxicity of compounds in the screening library against parental, drug-naive (KB-3-1) adenocarcinoma cells as well as their drug-selected MDR sub-line (KB-V1). The differential toxicity of compounds against these two cell lines will be used to identify MDR1-selective compounds, whose cytotoxicity is potentiated, rather than diminished, by P-gp expression. This assay will be utilized to conduct a quantitative high-throughput screen (qHTS) in collaboration with the NIH Chemical Genomics Center to identify selective agents, and probe hits arising from the screen will be validated using secondary assays and characterized through a well-established follow-up research program. This screen was run against the entire NCGC library collection of about 400,000 compounds.
NIH Molecular Libraries Probe Production Network [MLPCN]
NIH Chemical Genomics Center [NCGC]
PI: Michael Gottesman, National Cancer Institute, NIH
Briefly, 5 microL of media containing either KB-V1 cells (columns 1-2, 4-48) are dispensed into Greiner white, treated solid-bottom 1536-well assay plates (media-only control is added to column 3). Compounds are then transferred via Kalypsys pin tool equipped with 1536-pin array (10 nL slotted pins, V&P Scientific, San Diego, CA). Following addition of compound, the plates are incubated at 37 degrees C for 72 hours. CellTiter-Glo (2.5 µL/well) is then added, and the plates are read in a ViewLux reader (Perkin-Elmer, clear luminescence filter, 1 second exposure, 1x binning) following a 10 minute incubation. All cells are dispensed in DMEM phenol-red free media containing 10% FBS.
Library plates were screened starting from the lowest and proceeding to the highest concentration. Vehicle-only plates, with DMSO being pin-transferred to columns 5-48, will be inserted uniformly at the beginning and the end of each library in order to monitor and record any shifts in the background, which can be affected by reagent dispensers or loss in enzyme activity over time. Screening data will be corrected, normalized, and concentration-effect relationships will be derived by using publicly-available NCGC, NCATS curve fitting algorithms (http://ncgc.nih.gov/pub/openhts).
Potency is the fitted concentration of half-maximal effect.

Row | SMILES | Potency
1 | CCCN1C(=O)C(Cc2nc3ccccc3c(=O)n2-c2ccccc2)c2cc(C)ccc21 (stereo unspecified) | active: 4.11 µM [sample A] and inactive [sample B]
2 | CCCCNC(=O)CCn1c(=O)c2ccccc2n(Cc2cc(C)ccc2C)c1=O | active: 3.26 µM [sample A] and inactive [sample B]
3 | Cc1cc2ncn(CCCCOc3ccccc3)c2cc1C | active: 18.4 µM [sample A] and inactive [sample B]
4 | COc1ccc(-c2nc3cc(C)ccn3c2NC2CCCCC2)cc1SC1CCCCC1 | active: 18.4 µM [sample A] and inactive [sample B]
5 | O=C1CC[C@H](O)CCN1[C@H](CSc1ccc(Br)cc1)Cc1ccccc1 | inactive [sample A] and active: 14.6 µM [sample B]
6 | O=C(C[C@H]1C(=O)N(c2ccc(F)c(F)c2)C[C@@H]1Cc1ccccc1)Nc1ccccc1 | inactive [sample A] and active: 16.4 µM [sample B]
